Several values for one entry are separate records, joined by “and”; a condition that tells them apart may be missing. Identical values can stand only once. In all, about 16,000 compounds went through this assay and about 40 (0.2%) were called active. Not shown: some 1% with an inconclusive outcome. Calls follow the shape of the dose curve; as a rule, active = well fitted activation curve with a large enough effect; inconclusive = small, poorly fitted or top-dose-only effect, or another doubt; inactive = no such curve, though single readings can be large or run the other way. The list shows a part of the results.
Molecular target: Rap guanine nucleotide exchange factor 4 (Homo sapiens) (UniProt Q8WZA2)
Assay: Validation qHTS for agonist of cAMP-regulated guanine nucleotide exchange factor 4 (EPAC2);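 also: exchange makes BODIPY-GDP fluorescence drop when released from Rap1B; series mostly up to about 150 µM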
Settings: EPAC2 Rap1B BODIPY-GDP exchange, fluorescence; activation: active compounds read high
In short: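 Fluorescent exchange assay: 100 nM EPAC2 with 250 nM RAP1B-BODIPY-GDP and 50 uM GDP; compound added, 5 min at room temperature, then read (ex 480/em 540 nm) every 5 min for 30 min. Normalized to 6.5 mM cAMP agonist control.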
% is scaled to controls: 0 for no effect and ±100 for the full control effect.

UniProt Q8WZA2, sequence (Q8WZA2 whole entry, looked up): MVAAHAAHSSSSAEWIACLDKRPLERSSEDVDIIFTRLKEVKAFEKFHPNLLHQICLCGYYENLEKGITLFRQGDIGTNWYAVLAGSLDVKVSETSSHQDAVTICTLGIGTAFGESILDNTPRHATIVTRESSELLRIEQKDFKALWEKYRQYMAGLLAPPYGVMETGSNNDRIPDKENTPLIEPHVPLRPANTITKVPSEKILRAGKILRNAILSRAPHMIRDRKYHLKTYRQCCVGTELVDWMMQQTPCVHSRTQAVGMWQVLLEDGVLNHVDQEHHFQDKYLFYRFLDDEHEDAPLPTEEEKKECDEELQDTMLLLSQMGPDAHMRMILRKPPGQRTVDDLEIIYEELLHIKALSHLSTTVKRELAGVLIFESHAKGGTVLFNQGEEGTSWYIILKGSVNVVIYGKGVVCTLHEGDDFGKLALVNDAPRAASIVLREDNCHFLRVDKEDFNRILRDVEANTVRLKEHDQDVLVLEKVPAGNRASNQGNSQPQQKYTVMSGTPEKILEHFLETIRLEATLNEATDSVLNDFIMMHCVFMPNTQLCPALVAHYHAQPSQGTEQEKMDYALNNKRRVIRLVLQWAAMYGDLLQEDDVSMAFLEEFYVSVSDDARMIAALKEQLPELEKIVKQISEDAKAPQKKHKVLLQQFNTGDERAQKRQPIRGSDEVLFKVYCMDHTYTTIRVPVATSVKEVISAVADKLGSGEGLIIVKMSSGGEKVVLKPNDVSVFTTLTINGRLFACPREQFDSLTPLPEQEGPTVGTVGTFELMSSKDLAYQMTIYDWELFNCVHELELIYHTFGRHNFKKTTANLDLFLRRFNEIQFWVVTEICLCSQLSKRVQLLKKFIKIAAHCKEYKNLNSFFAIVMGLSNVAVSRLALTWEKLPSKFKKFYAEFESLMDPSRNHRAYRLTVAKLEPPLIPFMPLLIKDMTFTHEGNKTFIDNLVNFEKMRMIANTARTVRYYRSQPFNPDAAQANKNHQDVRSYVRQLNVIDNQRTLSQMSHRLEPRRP

activation, inactive:
CCCCCCCC/C=C\CCCCCCCC(=O)NCCO -37.2% and 0.752% and -40.5%
CC(=O)NCCNc1nc(-c2ccc(N(C)C)cc2)nc2ccccc12 -5.84%
CN(C)c1ncc2nc(CCc3ccccc3)c(=O)n(C[C@H]3CCCO3)c2n1 -6.53%
Cc1ccccc1-c1nc(-n2ccnc2)c2ccccc2n1 -3.02%
CC(C(O)c1ccccc1)N(C)CCOC(c1ccccc1)c1ccccc1 (configuration not stated) -16.4%
COc1ccc(NC(=O)N2CC3(CCN(C(=O)c4c(C)noc4C)CC3)C2)cc1 -11.9%
COc1ccccc1-c1ccc2ncnc(NC3CC3)c2c1 -7.06%
Cc1cc(C)cc(OCC2CNC(=O)O2)c1 (configuration not stated) -17.4%
CC(=O)O[C@H]1C[C@@H]2CC[C@@H]3[C@H](CC[C@@]4(C)[C@H]3C[C@H]([N+]3(C)CCCCC3)[C@@H]4OC(C)=O)[C@@]2(C)C[C@@H]1N1CCCCC1 -10.1%
Cc1ccc(O)c(-n2nc3ccccc3n2)c1 8.07%
Cc1c(C(=O)NCC2(N3CCOCC3)CCCCC2)cnn1-c1nccc(-c2ccccc2F)n1 -9.26%
CC1(C)C(=O)C=C[C@]2(C)C1CC(=O)[C@]1(C)C2CC[C@@]2(C)C(c3ccoc3)OC(=O)C3O[C@@]321 (some centres not stated) -3.74%
O=C(O)[C@H](O)[C@@H](O)[C@H](O[C@@H]1O[C@H](CO)[C@H](O)[C@H](O)[C@H]1O)[C@H](O)CO -11.5%
COc1ccc(SCCN2CC[C@@H](O)CCC2=O)cc1 -10.1%
COc1ccc(C(=O)N2CCC3(CCCN(CC(C)C)C3)CC2)cc1 -4.57%
COc1cc2nc(CCc3nc4cc(OC)c(OC)cc4[nH]3)[nH]c2cc1OC -8.1%
COc1ccc(C(=O)O)c(O)c1OC -2.3%
COc1cc(/C=C/C(=O)N2CCCCC2=O)cc(OC)c1OC 9.48%
O=c1c(-c2ccc(F)c(F)c2)nc2cncnc2n1-c1ccccc1 -16.6%
CC1(C)O[C@@H]2C[C@H]3[C@@H]4CCC5=CC(=O)CC[C@]5(C)[C@@]4(F)[C@@H](O)C[C@]3(C)[C@]2(C(=O)CCl)O1 -15.1%
Cc1nc2cnc(N3CCNCC3)nc2n(Cc2ccc(F)cc2)c1=O -16.6%
O=C(Nc1ccc2c(c1)OCO2)O[C@@H]1C[C@H]2CCC(=O)N3CC[C@@H](C1)[C@@H]23 -10.3%
COc1cc(OC)cc(C(=O)NCC2Cc3cccc(-c4nc(C)cnc4C)c3O2)c1 (configuration not stated) -19.9%
COc1cc(=O)n2c(c1C(=O)NC(C)c1ccco1)CCN(Cc1ccccc1Cl)CC2 (configuration not stated) -1.87%
CCCC[C@H]1COCCS(=O)(=O)N1Cc1ccc(F)cc1 -39.8%
CS(=O)(=O)N1CCC2(CC1)CN(Cc1nccs1)C2 -0.541%
CCCCCCCCCCCCCCCC(=O)OC[C@H](COP(=O)([O-])OCC[N+](C)(C)C)OC(=O)CCCCCCCCCCCCCCC 5.83%
O=c1c(CCc2ccccc2)nc2cnc(Oc3cccc(Cl)c3)nc2n1C[C@H]1CCCO1 -4.94%
Cc1cc(C)cc(CN2CCOc3ccc(CN4CCC(O)(c5cccnc5)CC4)cc3C2)c1 -19.4%
COc1ccc2[nH]cc(CCNc3ccnc(-c4ccc(C(=O)N(C)C)cc4)n3)c2c1 9.65%
O=C(Nc1cccc(F)c1)N1CCC2(CC1)CCN(C(=O)c1csnn1)CC2 -3.86%
C[C@]12C=CC(=O)C=C1CC[C@H]1[C@@H]3C[C@@H](O)[C@](O)(C(=O)CO)[C@@]3(C)C[C@H](O)[C@@]12F 4.35% and -26.1%
COc1cccc(Nc2ncc3ncc(=O)n(CCc4ccccc4)c3n2)c1 -14.5%
FC(F)(F)c1ccccc1-c1nccc(NCCN2CCOCC2)n1 3.47%
CCN(CC)C(=O)/C(C#N)=C/c1cc(O)c(O)c([N+](=O)[O-])c1 -6.7%
COc1ccc2[nH]cc(CCNc3nc(-c4ccc(C(=O)N(C)C)cc4)nc4ccccc34)c2c1 6.4%
O=C(NCCc1ccccn1)C1CC12CCN(C(=O)c1ccc(F)cc1Cl)CC2 (configuration not stated) -4.52%
C[C@@H]1O[C@@H](OC[C@H]2O[C@@H](Oc3c(-c4ccc(OCCO)c(OCCO)c4)oc4cc(OCCO)cc(O)c4c3=O)[C@H](O)[C@@H](O)[C@@H]2O)[C@H](O)[C@H](O)[C@H]1O -9.86%
COc1cccc(Cn2c(=O)c(-c3cc(F)cc(F)c3)nc3cnc(N4CCN(C)CC4)nc32)c1 -6.18%
COC(=O)C1CCN(Cc2ccc3c(c2)CN(C(=O)c2cc4cc(F)ccc4[nH]2)CCO3)CC1 -2.38%
NC(N)=NCCC[C@H](NC(=O)[C@@H](N)Cc1ccc(O)cc1)C(=O)O 1.7%
OC/C=C/c1ccc(O)c(O)c1 -15.8%
O=C(C[n+]1c(Cl)cc(Cl)c2ccccc21)c1ccccc1 -12.4%
O=c1cc(-c2cccc(O)c2)oc2ccc(O)cc12 -19.8%
CC(=O)OC1CC2C(C)(C)C(=O)[C@@H]3OC3[C@@]2(C)C2CC[C@]3(C)C(=CC(=O)OC3c3ccoc3)[C@]12C (some centres not stated) -2.03%
CCCOC(=O)c1ccccc1O -8.72%
COC(=O)CCC(C)C1CCC2C3C(C[C@H](O)C12C)C1(C)CC[C@@H](O)CC1C[C@H]3O (some centres not stated) -10.7%
CCCCC/C=C\C/C=C\C/C=C\C/C=C\CCCC(=O)O[C@@H](CO)COC(=O)CCCCCCCCCCCCCCCCC 0.512%
CC(C)NC(=O)c1cn(C2CCCN(C(=O)c3cc4ccccc4oc3=O)C2)nn1 (configuration not stated) -4.04%
Cn1cccc1C(=O)N1CCC2(CC1)CCN(c1ccncc1)CC2 -8.14%
CN(C/C=C/c1ccccc1)Cc1cccc2ccccc12 -5.5%
CCCS(=O)(=O)NCc1c(C)ncc2c1CCN(C(=O)c1c(F)ccc(F)c1F)C2 -2.36%
CCCC(=O)NCCc1c(I)[nH]c2ccc(OC)cc12 -16.8%
COc1ccc2c(c1)-c1nc(-n3ncc(C(=O)NCC4CCCN(C)C4)c3C3CC3)ncc1CC2 (configuration not stated) 1.91%
CN1C(=O)OC(C)(C)C1=O -2.15%
CC(=O)CCCCn1c(=O)c2c(ncn2C)n(C)c1=O -2% and -3.07% and -13.2%
Cc1[nH]c2ccccc2c1/C=C/c1ccnc2ccccc12 -5.14%
COC(=O)C[C@H]1c2cc(C(F)(F)F)ccc2S(=O)(=O)N1Cc1ccc(OC)cc1 -21.2%
C[C@@H]1CC[C@@]2(OC1)O[C@H]1C[C@H]3[C@@H]4CC[C@H]5C[C@@H](O)CC[C@]5(C)[C@H]4CC(=O)[C@]3(C)[C@H]1[C@@H]2C -1.26%
CCC(CCC(C)C1CCC2C3CCC4CC(O)CC[C@@]4(C)C3CC[C@@]12C)C(C)C (some centres not stated) -14.6%
Nc1c(CC(=O)O)cccc1C(=O)c1ccc(Br)cc1 -16.9%
CCOC(=O)O[C@]1(C(=O)OCCl)CC[C@@H]2[C@H]3CCC4=CC(=O)C=C[C@]4(C)[C@@H]3[C@@H](O)C[C@@]21C -19.4%
Cc1cc(C(=O)Nc2ccccc2-c2nc(CNC(=O)C3COc4ccccc4O3)c(C)o2)c(C)o1 (configuration not stated) -13.9%
NC[C@@H]1O[C@H](O[C@H]2[C@H](O)[C@H](O[C@H]3[C@@H](O)[C@H](N)C[C@H](N)[C@H]3O[C@H]3O[C@H](CN)[C@H](O)[C@H](O)[C@H]3N)O[C@@H]2CO)[C@@H](N)[C@@H](O)[C@@H]1O -1.69%
OCCN1CCN(CCCN2c3ccccc3C=Cc3ccccc32)CC1 -13.8% and 16.1% and -41.9%
COCc1c(C(=O)N2CC3CCC2C3)cnn1-c1nccc(-c2ccccc2OC)n1 (configuration not stated) -11.5%
O=[N+]([O-])c1nccn1CO[C@@H](CO)[C@H](O)CO -20.6%
Cc1ccc(CNc2ncnc3sc(C(=O)N4CCCCC4c4cccnc4)c(C)c23)o1 (configuration not stated) -29.5%
FC(F)(F)c1ccccc1-c1cncnc1NCc1cccs1 -26.3%
N[C@@H](Cc1cc(CP(=O)(O)O)cc(-c2ccccc2Cl)c1)C(=O)O -10.5%
C[C@H]1O[C@@H](n2cc(F)c(=O)[nH]c2=O)[C@H](O)[C@@H]1O 12%
CCN1CCCC1CNC(=O)c1cnn(-c2nccc(-c3ccccc3OC)n2)c1-c1ccco1 (configuration not stated) 1.97%
CCCCC[C@H]1CN(CCc2ccccc2)C(=O)[C@@H]1CC(=O)NCc1ccc(OC)cc1 -38.7%
CC(=O)OC1CC[C@]2(C)C(CC(OC(C)=O)[C@@]3(C)C4=CC(=O)OC(c5ccoc5)[C@]4(C)CCC23)C1(C)C (some centres not stated) -4.26% and -11.1% and -3.28%
CN(C)c1cccc2ccccc12 -24.1%
CCCCC(CC)COS(=O)(=O)O (configuration not stated) 12.3%
CC(C)NC[C@H](O)COc1cccc2ccccc12 2.04% [middle of 4 runs]
